The record followed here is PMC4918326.

Chains of the proteins cited; added tags and fusions are not shown. Lines headed by an entry give the natural chain unless they say otherwise; changes in a name come on top. A line that says so, or that is headed by a name, gives the form on record, which may keep a tag or linker.
UniProt Q7Z434: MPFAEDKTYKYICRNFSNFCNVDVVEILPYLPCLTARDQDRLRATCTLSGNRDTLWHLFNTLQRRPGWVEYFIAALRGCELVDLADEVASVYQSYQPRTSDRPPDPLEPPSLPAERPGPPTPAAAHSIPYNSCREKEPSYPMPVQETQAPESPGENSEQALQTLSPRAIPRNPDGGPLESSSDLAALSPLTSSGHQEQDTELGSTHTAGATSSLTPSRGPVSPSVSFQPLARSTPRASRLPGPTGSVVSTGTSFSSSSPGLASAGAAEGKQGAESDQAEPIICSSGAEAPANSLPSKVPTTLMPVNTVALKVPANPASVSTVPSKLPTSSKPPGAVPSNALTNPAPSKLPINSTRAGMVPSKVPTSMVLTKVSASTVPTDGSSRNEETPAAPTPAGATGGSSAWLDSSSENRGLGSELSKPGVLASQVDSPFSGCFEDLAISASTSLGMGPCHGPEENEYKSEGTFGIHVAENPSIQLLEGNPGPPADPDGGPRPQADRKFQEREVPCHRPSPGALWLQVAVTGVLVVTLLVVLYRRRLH
Flag-MAVS^ΔCARD (Q7Z434, form named): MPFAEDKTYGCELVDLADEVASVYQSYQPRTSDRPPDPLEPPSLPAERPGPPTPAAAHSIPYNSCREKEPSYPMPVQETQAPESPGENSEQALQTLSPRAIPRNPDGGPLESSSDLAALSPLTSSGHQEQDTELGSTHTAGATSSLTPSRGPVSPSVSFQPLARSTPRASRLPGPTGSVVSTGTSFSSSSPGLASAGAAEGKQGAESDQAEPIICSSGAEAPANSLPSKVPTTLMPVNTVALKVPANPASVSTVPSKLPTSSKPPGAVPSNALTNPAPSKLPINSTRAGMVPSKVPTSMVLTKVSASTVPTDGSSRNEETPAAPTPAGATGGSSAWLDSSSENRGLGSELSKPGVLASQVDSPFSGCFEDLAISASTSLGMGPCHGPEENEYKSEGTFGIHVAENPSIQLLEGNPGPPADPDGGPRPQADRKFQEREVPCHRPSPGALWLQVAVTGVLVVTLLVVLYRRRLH

Residue numbers refer to the chain shown, from its start. These are yes or no findings as the source states them, for the method shown. For part of these data: In cells and extracts the contact can be indirect. Some entries that bind do so weakly or less than the wild type. For part of these data: Sequences can lack the tags named with a protein.

The target of assay [1] is T1, GST-MARCH5 cytosolic loop (AAs 160–208) (UniProt Q9NX47).
T1 sequence: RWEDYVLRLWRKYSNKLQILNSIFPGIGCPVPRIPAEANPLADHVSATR
As to the kind of experiment: pull-down; only the target purified.

Assay [2] addresses T2, GST-MARCH5 C terminus (AAs 259–278) (UniProt Q9NX47).
T2 sequence: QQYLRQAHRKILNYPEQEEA
As to the kind of experiment: pull-down; only the target purified.

The target of assay [3] is T3, Myc-MARCH5^WT (UniProt Q9NX47).
T3 sequence: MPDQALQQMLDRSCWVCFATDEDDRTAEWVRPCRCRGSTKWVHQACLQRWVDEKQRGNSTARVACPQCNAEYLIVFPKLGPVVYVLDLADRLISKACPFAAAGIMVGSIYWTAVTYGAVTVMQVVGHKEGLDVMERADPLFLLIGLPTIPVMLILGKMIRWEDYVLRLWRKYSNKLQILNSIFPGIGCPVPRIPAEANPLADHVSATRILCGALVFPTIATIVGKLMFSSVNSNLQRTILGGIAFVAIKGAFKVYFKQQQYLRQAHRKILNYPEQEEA
As to the kind of experiment: co-IP; HEK293T cells co-transfected with Myc-MARCH5 and Flag-MAVS plasmids for 36 h; lysis and washes in RIPA buffer; immunoblotting with indicated antibodies. Background: In western blotting, separated proteins are transferred to a membrane and probed.

The next assay addresses T4, Myc-MARCH5^H43W (UniProt Q9NX47).
T4 sequence: T3 sequence with H43W
Described as above.

Assay [4] deals with T5, MARCH5 (bait of the streptavidin-affinity purification) (UniProt Q9NX47).
T5 sequence: T3 sequence
Nature of the assay: streptavidin-affinity purification; preliminary data, not shown; streptavidin-affinity purification of MARCH5.

Assay [5] has as its target T6, GST-conjugated MARCH5 wild-type protein (UniProt Q9NX47).
T6 sequence: T3 sequence
Nature of the assay: pull-down; GST-conjugated MARCH5 wild-type protein purified from insect, incubated with cell lysates treated with/without poly(I:C); only the target purified.

For assay [6], the target named is T3, Myc-MARCH5^WT. Nature of the assay: co-IP.
Assay [7] deals with T7, endogenous MARCH5 (human (endogenous in HEK293T)) (UniProt Q9NX47).
T7 sequence: T3 sequence
As to the kind of experiment: co-IP.

On to “Flag-MAVS^WT (from UniProt Q7Z434 1-540)”, for which the binding result in assay [1] is “no binding”; in assay [2] it was “no binding”; with Myc-MARCH5^WT [3], “binds”; with Myc-MARCH5^H43W, “binds”.
On to “Flag-MAVS^ΔCARD (from UniProt Q7Z434 1-540)”, for which, in the assay with Myc-MARCH5^WT [3], the binding result is listed as “no binding”.
For the substance “MAVS (found in the streptavidin-affinity purification of MARCH5) (from UniProt Q7Z434 1-540)”, in assay [4], the binding result was “binds”.
For “MAVS in cell lysates treated with/without poly(I:C) (GST pull-down, Fig. 5e) (from UniProt Q7Z434 1-540)”, the binding entry in assay [5] is “binds”.
Take “endogenous MAVS (from UniProt Q7Z434 1-540)”: the binding entry (in the assay with Myc-MARCH5^WT [6]; in assay [7]) was “binds” each time.
